The other results are listed elsewhere or left out.
T1: UNK ZnF1-3 (human, UniProt Q9C0B0 31-174)
T1 sequence: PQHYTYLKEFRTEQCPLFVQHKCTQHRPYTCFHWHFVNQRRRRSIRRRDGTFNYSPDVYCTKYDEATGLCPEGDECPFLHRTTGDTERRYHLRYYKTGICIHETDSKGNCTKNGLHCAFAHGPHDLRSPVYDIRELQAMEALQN

B1: chr12:16048344:16048345:+_ENSG00000023734_ENST00000419869|hu_hu|hu_hu_hu_mus_True|58_98 (ssRNA)
RNA: GGGAGUUCUACAGUCCGACGAUCAGAUCGUCCAUAAGUUAUAACCAAAAUCUCUCCUUCAGGAAUAUACUCCAUGCUACUAACAGACAUAUUAAAAUUCAGAGAUUUCACUUCUGUCAUUGUGGCAUGAUCCCAGAGCCGAACCAACAGAGGAUUGAGCAUCA
B2: chr19:36933551:36933552:+_ENSMUSG00000024811_ENSMUST00000025729|mus_hu|motif|central (ssRNA)
RNA: GGGAGUUCUACAGUCCGACGAUCGUGGCCUUUAAAUUCAUAUGCUAAUCUUUCUUUUAACUGUGGUGUGGGAGCCAAGUCGGUAGCACUUUUAUUGUGACAAUUGAGCAGUGUUGGGUCUGCACCAUAACUUAAGAGAAGAGACAACAGAGGAUUGAGCAUCA
B3: 205589400_205589520_1053_3pUTR_ENSG00000158711_ENST00000357992|human|control|control (ssRNA)
RNA: GGGAGUUCUACAGUCCGACGAUCAUGGACGAAAUGGGUGGUGUGGUGGCAAAAGCAGUCAUUACGUUAGAGGCAGAGGUUGGGGCUUCCAGGGAAGGCAGUUUUGGGGAAACCAAUGUCUCCAAAGCUUGGAUAGUUUCUUCUCAACAGAGGAUUGAGCAUCA
B4: 60818152_60819469_732_3pUTR_ENSMUSG00000021559_ENSMUST00000077453|mouse|control|control (ssRNA)
RNA: GGGAGUUCUACAGUCCGACGAUCUCAUUUCCAAAGUCAAUUUUAUGGGCCAAGCCAAAGUCUAUGAUCUUGAUCCGAGGUUUGGGCACAUUUCUAUCCAGAAGCAUUAUGUUUUCCGGCUUCAGGUCAAAGUGAGCGAUCUGCCAACAGAGGAUUGAGCAUCA
B5: chr1:60041781:60041782:+_ENSMUSG00000041040_ENSMUST00000036540|mus_hu|mus_mus_mus_hu_False|1_8 (ssRNA)
RNA: GGGAGUUCUACAGUCCGACGAUCAAGUUUACAAUAGUAAAGUAAAUGCAGUAGUGGCAAAUUUUCUUUUAUUUUCCUUCACAAAAGAAAAUCUUUAUAACCCAGUCCUAGUCUUGGACAUAGUGAAUCUCCAUGGGGCCACUGCAACAGAGGAUUGAGCAUCA
B6: chr17:25041749:25041750:-_ENSMUSG00000024163_ENSMUST00000117509|mus_mus|motif|central (ssRNA)
RNA: GGGAGUUCUACAGUCCGACGAUCAGAUGGGUAGGAUCGUUUGGCCGGAGGGGGGCUAGAUGAGGAGCUGAAGAGGCGACGGAAGAACUGCCAGAUGGUGGACUUCUUCUUCUCCUGGACAGAUGGGUGUUCCCUUGAUGCUCUCAACAGAGGAUUGAGCAUCA
B7: 15138320_15138440_3267_CDS_ENSMUSG00000046111_ENSMUST00000161132|mouse|control|control (ssRNA)
RNA: GGGAGUUCUACAGUCCGACGAUCAUAUAAAAGUAAUGUCUCUUGACCAUCACGUCUAGGCGGAAUCAUACUCCUCUGUCUAGUCAGCUGCUCUUGAAGCAACUUUAAAGUGUUCUGGAGAGGUAGGGUCUGCUGUAGAAAACCCAACAGAGGAUUGAGCAUCA
B8: chr7:36427155:36427156:-_ENSMUSG00000030417_ENSMUST00000118501|mus_mus|FALSE|FALSE (ssRNA)
RNA: GGGAGUUCUACAGUCCGACGAUCCAAAGUAAACAUUUACAAGGUGGUGACUGUCCUAGACACUGCUCCGGAAGUCUGUCUAAGUGCGUCCUCUUAGUAAUCGGCGUCGUCUUCAUCGGAGUCCAUUACUUUUCUUCUGUUGAACAACAGAGGAUUGAGCAUCA
B9: chr22:32879901:32879902:+_ENSG00000100225_ENST00000397426|hu_mus|hu_hu_hu_mus_False|58_98 (ssRNA)
RNA: GGGAGUUCUACAGUCCGACGAUCCUCUUCCAUACUCGCAUUAUCUUGAAUUGACUCAGCUUCAACAUUUUGACUAGGCCCUAACAUACUGUCAUCAGUCCAGGCAUCAAAUGGGGUGGCCUGUCCUUGGGAUGAAUCAGUCCCCAACAGAGGAUUGAGCAUCA
B10: chr12:86613709:86613710:-_ENSMUSG00000008822_ENSMUST00000008966|mus_mus|FALSE|FALSE (ssRNA)
RNA: GGGAGUUCUACAGUCCGACGAUCCUGCAGUUGCCCUUGCACGGUGCCCCGGUCGGUGUUCUGAACCCAGCCCACCAAACCUAGCUUUUUACCCUCAGCCUGAGUGUACUUGCGGAAAAACACCCCUUGAACCUUUCCAAAAAUCAACAGAGGAUUGAGCAUCA
B11: chr2:202488911:202488912:-_ENSG00000155755_ENST00000286196|hu_mus|hu_hu_hu_mus_False|78_78 (ssRNA)
RNA: GGGAGUUCUACAGUCCGACGAUCAUUGAAACAUUUUUCAUAAUCUCCAGUAGCAUUCAGUAUUAUAGUAACAAAAGCUCAAUUGUAAAUACAUGUAUCUUAUAAAAAUACACUUAAAAACACGAGUGGGGAGCGCAGGCGCCACAACAGAGGAUUGAGCAUCA
B12: chr22:38894135:38894136:-_ENSG00000100201_ENST00000396821|hu_mus|FALSE|FALSE (ssRNA)
RNA: GGGAGUUCUACAGUCCGACGAUCAUAAUCGUCAGCCACCUGCUGCACCUGCUGCGCAAGCUCUCUGGUAGGAGCCAGCACUAGACAAAUUGGACCAUCUCCUCUUUCCAAGUAUGGCUGGUGGUUUAUAUGAACAAUCGCAGGCAACAGAGGAUUGAGCAUCA
B13: 10697589_10697709_468_CDS_ENSG00000111845_ENST00000379568|human|control|control (ssRNA)
RNA: GGGAGUUCUACAGUCCGACGAUCCACUAGAGCCCCAUGCUCAAUCUUCUUUUUCAUGUCAUAAAUGUGAAUUGUUUCAUCUUUGCUCCCAGUGACCACAAAACGACUAUUUACAGCUACUGCUGACAAGGAGGCAGUGUGAGCCAACAGAGGAUUGAGCAUCA
B14: chr7:56126341:56126342:+_ENSG00000146731_ENST00000540286|hu_mus|hu_hu_hu_mus_True|38_78 (ssRNA)
RNA: GGGAGUUCUACAGUCCGACGAUCCAUGUUUCUCCUCUUGGCUCUGCGCAGAGCUACUAUGCCUUCUUUCGCAAGGGCAUCUAAGGAAAAGGGGUCAAUUCCCUUUUGAUUAAUAACGACAAAUCCUUUAUCUGAGUCACCACACAACAGAGGAUUGAGCAUCA
B15: chrX:98862621:98862622:+_ENSMUSG00000034160_ENSMUST00000044475|mus_hu|mus_mus_mus_hu_False|28_38 (ssRNA)
RNA: GGGAGUUCUACAGUCCGACGAUCCUGCAUCUCCUUUAGAGUGUUUCCCAUAUUAGAGUAGGCAUCAGCAAAGGUAGGACUGAUUCGAAUAGCCUCCUUAUAGUGCAUCAGUGCUUCCUGCAGUUUUCCCUGCUGCUGCAGUACCAACAGAGGAUUGAGCAUCA
B16: chr11:87793471:87793472:-_ENSMUSG00000020483_ENSMUST00000020775|mus_mus|mus_mus_mus_hu_False|78_98 (ssRNA)
RNA: GGGAGUUCUACAGUCCGACGAUCUGGACUUGAAAAUAAAAAAAAUAGCUGGAUCCCCCCACCCCUUACAUUGUCAACCCUACACGAGAGUUUUGAAGGCGACUCAUGAAAAUCAGCAGCUCAAACGGCAAUGACCACCCCACCCAACAGAGGAUUGAGCAUCA
B17: chr17:65740002:65740003:+_ENSG00000130935_ENST00000581375|hu_hu|hu_hu_hu_mus_False|28_78 (ssRNA)
RNA: GGGAGUUCUACAGUCCGACGAUCAACAAAUCUUUCUUCCCUGGACGAACAGGAAGACAUAAAAGAGAAAAAAUAUAUAUCCAUCAAGUUAGGUGUGGUGGCCACACAGAGCUCCAGAGCACUUUGGGAGGUGGAUCUCUGAGUCAACAGAGGAUUGAGCAUCA
B18: chr12:123254070:123254071:+_ENSG00000139726_ENST00000280557|hu_hu|FALSE|FALSE (ssRNA)
RNA: GGGAGUUCUACAGUCCGACGAUCGAGCCGAGAUCGCACCACUGCAUUCCAGCCCAGGCAACAGUGCGAGACUCUGUCAAAAAAAAAAAAGAGAGAGAGAGAGAGAGAGAAAGUCAGUACCAAAUGACCAAAAUUUUUUAUUUGCAACAGAGGAUUGAGCAUCA
B19: 106241872_106241992_1621_CDS_ENSMUSG00000046079_ENSMUST00000060531|mouse|control|control (ssRNA)
RNA: GGGAGUUCUACAGUCCGACGAUCGUCGUUCUUGACAUCCGGGAUGUCGCUGAAGCUGCUCUCCUCCCGGACUUUCUCAAACGAGUACUCCUUCAGAGGGAUCCUGAAUAGCCAGAAGAGAGUGUAGAGGCAGAUAAAGCCGUACAACAGAGGAUUGAGCAUCA
B20: 92773732_92773852_88_5pUTR_ENSMUSG00000008398_ENSMUST00000008542|mouse|control|control (ssRNA)
RNA: GGGAGUUCUACAGUCCGACGAUCCCUGCUCACUUCCUUUACUGCAUUAUUCCCCAGGCGGUGUGCAGUCUGUGUAAACAGGCUUUUCCGCCCCGCGCCGUGCGCCCGGGCCGCGGCUGUGCGCCGGGGCUGCCCGCCCAGACCCAACAGAGGAUUGAGCAUCA
B21: chr7:54825262:54825263:-_ENSG00000132432_ENST00000352861|hu_hu|hu_hu_hu_mus_False|58_88 (ssRNA)
RNA: GGGAGUUCUACAGUCCGACGAUCCUGCCGGCUGGGCUCCACAAACUUUACCUGAUCAUCCAUGUUUGUUGGAUGGCACACCUAAAACGUAGAGACACGUAGCUCAGGAGAGAACCGAGCCCAACGGAACCGGAAGCUGGCAACCAACAGAGGAUUGAGCAUCA
B22: chr16:69481128:69481129:+_ENSG00000103018_ENST00000515314|hu_hu|motif|central (ssRNA)
RNA: GGGAGUUCUACAGUCCGACGAUCCAACGGAUGGAUAUCACCAAUGUAGUACUGCUUUAGCAUUUCUCUGGCAUCAGAAGAGUGUCCGGCAUCUUCAAAGCUUUCACUUGCAUCUACACCAGCUUGUUCCAGCAGAACCUCUUCCAACAGAGGAUUGAGCAUCA

Each binder was assayed against T1, UNK ZnF1-3 (assay: nsRBNS (natural sequence RNA bind-n-seq); RBNS binding buffer (assumed for nsRBNS): 25 mM Tris pH 7.5, 150 mM KCl, 3 mM MgCl2, 0.01% Triton X-100, 500 ug/ml BSA, 20 U/ml SUPERase-In, 4 C; UNK is unkempt and MSI1 is Musashi-1; names of the RNAs are library labels; protein concentration not given here; high values mean tight binding).

| Binder | binding signal |
| --- | --- |
| B1 | 0.959 enrichment R |
| B2 | 1.74 enrichment R |
| B3 | 1.75 enrichment R |
| B4 | 0.793 enrichment R |
| B5 | 0.832 enrichment R |
| B6 | 1.15 enrichment R |
| B7 | 0.696 enrichment R |
| B8 | 0.676 enrichment R |
| B9 | 1.24 enrichment R |
| B10 | 1.08 enrichment R |
| B11 | 0.984 enrichment R |
| B12 | 0.798 enrichment R |
| B13 | 1.31 enrichment R |
| B14 | 0.681 enrichment R |
| B15 | 0.984 enrichment R |
| B16 | 3.02 enrichment R |
| B17 | 2.33 enrichment R |
| B18 | 1.61 enrichment R |
| B19 | 1.04 enrichment R |
| B20 | 0.889 enrichment R |
| B21 | 1.07 enrichment R |
| B22 | 1.12 enrichment R |

Source: PMC12136788
